Data taken from PubChem BioAssay AID720709 (National Center for Advancing Translational Sciences (NCATS), 2013).
Hit rate of the full screen: of about 360,000 compounds, about 520 (0.14%) were called active. The inconclusive results got no clear call from the source; some entries with a clear call stand among them for comparison. Calls follow the shape of the dose curve; as a rule, active = well fitted inhibition curve with a large enough effect; inconclusive = small, poorly fitted or top-dose-only effect; inactive = no such curve, though single readings can be large or run the other way. Potencies of inconclusive entries are doubtful fits and often do not repeat.

What follows are molecules tested against Rap guanine nucleotide exchange factor 3 (Homo sapiens) (UniProt O95398) (assay: qHTS for Antagonist of cAMP-regulated guanine nucleotide exchange factor 3 (EPAC1): primary screen). Conditions: EPAC1 GEF assay, Rap1b-BODIPY-GDP exchange fluorescence; activity change, negative = inhibition: at 115 µM (top of the series).
Also: nearly all actives have a fitted effect of over 50% in size.
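For activity change, negative = inhibition in this document: plate controls were vehicle for no effect and positive control for full effect.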
Potency is read from the fitted curve at half-maximal effect; tags tell the direction and shape of the fitted curve.

UniProt O95398, sequence (O95398 whole entry, looked up): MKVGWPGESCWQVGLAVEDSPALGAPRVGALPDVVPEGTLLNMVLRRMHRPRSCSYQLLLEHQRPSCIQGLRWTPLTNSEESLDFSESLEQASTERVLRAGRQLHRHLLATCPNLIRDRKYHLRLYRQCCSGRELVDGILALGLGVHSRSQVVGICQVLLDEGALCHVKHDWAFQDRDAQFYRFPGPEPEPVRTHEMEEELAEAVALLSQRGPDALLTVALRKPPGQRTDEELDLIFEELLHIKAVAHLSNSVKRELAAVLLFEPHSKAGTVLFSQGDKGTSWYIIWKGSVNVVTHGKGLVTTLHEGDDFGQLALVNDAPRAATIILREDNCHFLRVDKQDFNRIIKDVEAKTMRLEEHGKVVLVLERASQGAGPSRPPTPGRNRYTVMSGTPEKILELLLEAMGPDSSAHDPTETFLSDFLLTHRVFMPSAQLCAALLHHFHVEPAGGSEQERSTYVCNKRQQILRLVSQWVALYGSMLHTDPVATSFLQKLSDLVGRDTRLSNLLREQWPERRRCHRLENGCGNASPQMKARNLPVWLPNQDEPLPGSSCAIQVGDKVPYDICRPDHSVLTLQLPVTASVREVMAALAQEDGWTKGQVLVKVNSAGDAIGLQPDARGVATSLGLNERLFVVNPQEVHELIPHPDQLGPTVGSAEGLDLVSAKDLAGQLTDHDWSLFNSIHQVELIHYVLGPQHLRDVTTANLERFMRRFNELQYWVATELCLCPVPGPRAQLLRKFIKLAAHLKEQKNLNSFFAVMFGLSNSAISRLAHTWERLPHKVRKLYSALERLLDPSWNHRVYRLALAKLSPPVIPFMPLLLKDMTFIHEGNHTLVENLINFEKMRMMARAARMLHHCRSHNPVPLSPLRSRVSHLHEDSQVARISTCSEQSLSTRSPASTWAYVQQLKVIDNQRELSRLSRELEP

Potency, inconclusive:
O=S(=O)(O)c1cc(O)c2cc(Nc3ccccc3)ccc2c1 44.7 µM [inhibitor, partial curve]
Oc1ccc2ccccc2c1CN1CCN(C/C=C/c2ccccc2)CC1 35.5 µM [inhibitor, full curve, poor fit]
O=[N+]([O-])c1cc(-c2nnc(Nc3ccc(O)cc3)c3ccccc23)ccc1N1CCOCC1 44.7 µM [inhibitor, full curve, poor fit]
Cc1ccc(S(=O)(=O)N(Cc2ccc(Cl)cc2)c2ccccc2C(=O)O)cc1 89.1 µM [inhibitor, single point]
O=C(O)c1ccc(COc2ccccc2/C=C2/NC(=O)N(c3cccc(Cl)c3)C2=O)cc1 31.6 µM [inhibitor, full curve]
CC(=O)c1cccc(S(=O)(=O)NC(C)C2CC3CCC2C3)c1 (stereo unspecified) 56.2 µM [inhibitor, partial curve, poor fit]
Cc1cc(C)nc(NNC(=O)c2ccccc2O)n1 89.1 µM [inhibitor, single point]
CCCCc1cc(-c2n[nH]c(=S)o2)c2ccccc2n1 7.08 µM [inhibitor, full curve]
CCCCNC(=O)c1sc(=S)n2c1[nH]c(=O)c1ccccc12 28.2 µM [inhibitor, single point]
CCc1nn2c(N)c(/C=C3\C=Nc4ccccc43)c(=O)nc2s1 100 µM [inhibitor, single point]
C=CCN=C1SC(C)C(=O)N1S(=O)(=O)c1ccccc1 (stereo unspecified) 22.4 µM [inhibitor, full curve, poor fit]
CCCCOc1ccc(C2=NNC(=O)CC2)cc1 11.2 µM [inhibitor, full curve, poor fit]
COc1cc(S(=O)(=O)Nc2ccc(C)cc2)ccc1N=Cc1c(C)[nH]n(-c2ccc(C)cc2)c1=O 3.55 µM [inhibitor, full curve, poor fit]
COc1cccc(COC(=O)C2CCN(S(=O)(=O)c3ccc(Cl)cc3)CC2)c1OC 3.55 µM [inhibitor, full curve, poor fit]
O=C(N/N=C/c1cc([N+](=O)[O-])ccc1O)c1ccc(COc2ccc3c(c2)CCC3)o1 100 µM [inhibitor, single point]
Cc1cccc(C(=O)N2CCC(=O)N(C(COCc3cccc(C(F)(F)F)c3)Cc3ccccc3)CC2)c1 (stereo unspecified) 79.4 µM [inhibitor, partial curve, poor fit]
CC(C)Oc1ccc(Br)cc1/C=N\NC(N)=S 89.1 µM [inhibitor, single point]
CCN1CCN(CCNC(=O)c2ccc(/C=C3/Sc4ccccc4N(Cc4ccccc4C)C3=O)cc2)CC1 2.82 µM [inhibitor, full curve, poor fit]
O=C(Cn1ncc2c1-c1ccccc1OC2)N(Cc1ccco1)C1CCCCC1 89.1 µM [inhibitor, single point]
CCSCCOC(=O)C1=C(C)NC(=O)NC1c1ccccc1 (stereo unspecified) 100 µM [inhibitor, single point]
CC(C)C[C@H](NC(=O)c1nc[nH]c1C(=O)NCCCCCNC(=O)OC(C)(C)C)C(=O)OCc1ccccc1 50.1 µM [inhibitor, partial curve]
Cc1ccc(C)c(N2CCN(C(=O)c3ccc(N4CCCC4=O)cc3)CC2)c1 22.4 µM [inhibitor, single point]
O=C1c2ccccc2C(=O)N1/N=C/c1ccc(O)c(O)c1O 79.4 µM [inhibitor, partial curve]
CCOc1cc(/C=N/Nc2cccc(C(=O)O)c2)ccc1OC(=O)c1ccccc1 20 µM [inhibitor, full curve]
CC(NC(=O)COC(=O)c1ccc([N+](=O)[O-])s1)c1ccccc1 (stereo unspecified) 112 µM [inhibitor, partial curve, poor fit]
CSCCC(NS(=O)(=O)c1cccc(C(F)(F)F)c1)C(=O)N1CCN(C(=O)c2ccco2)CC1 (stereo unspecified) 89.1 µM [inhibitor, single point]
CCOC(=O)N1CCN(C(=O)c2ccccc2N(Cc2ccccc2)S(=O)(=O)c2ccc(OC)cc2)CC1 39.8 µM [inhibitor, partial curve]
O=C(O)c1ccc2c(c1)C(=O)N(c1cccc(-c3nc4ccccc4s3)c1)C2=O 63.1 µM [inhibitor, partial curve]
COCc1cc(C)nc(N2CCOCC2)c1C#N 20 µM [inhibitor, single point]
O=C1C(=Cc2ccco2)CCC1=Cc1ccco1 35.5 µM [inhibitor, full curve]
CCOc1ccccc1-c1cnc(NC)cn1 89.1 µM [inhibitor, partial curve]
COc1ccc(NC(=O)C2(C)CCN2Cc2ccccc2OC(F)F)cc1OC (stereo unspecified) 56.2 µM [inhibitor, partial curve, poor fit]
C=CCOC(=O)C1=C(C)NC(C)=C(C(=O)OCC=C)C1c1cccs1 28.2 µM [inhibitor, full curve, poor fit]
CCC(NS(=O)(=O)c1ccc2c(c1)NC(=O)C(C)C(=O)N2)c1cccs1 (stereo unspecified) 22.4 µM [inhibitor, single point]
CC(OC(=O)c1ccccc1NCCO)C(=O)Nc1ccc(S(=O)(=O)N2CCOCC2)cc1 (stereo unspecified) 100 µM [inhibitor, single point]
CCCC1(C(=O)O)NC(c2ccccc2O)C2C(=O)N(Cc3ccccc3)C(=O)C21 (stereo unspecified) 2.82 µM [inhibitor, full curve, poor fit]
O=C1c2ccccc2C(=O)c2c(O)c(O)cc(O)c21 50.1 µM [inhibitor, partial curve]
CCN1/C(=C/c2ccc3cc(C)ccc3[n+]2CC)Sc2cc(C)ccc21 89.1 µM [inhibitor, single point]
C=C(CCC(=O)c1ccccc1)C(=O)c1ccccc1 56.2 µM [inhibitor, partial curve]
O=C(NC1CC1)c1cc(-c2ccco2)nc2ccccc12 44.7 µM [inhibitor, full curve, poor fit]
CCCCCCC[C@@H](C/C=C/CCC(=O)N(C)C/C(=C/Cl)C/C(=C\C(=O)N1C[C@H](O)CC1=O)OC)OC 35.5 µM [inhibitor, full curve, poor fit]
CC(OC(=O)CCc1nc2ccccc2c(=O)[nH]1)C(=O)c1ccc(C(C)(C)C)cc1 (stereo unspecified) 79.4 µM [inhibitor, single point]
CC(C)CC(NC(=O)C1CCC(C)CC1)C(=O)Nc1ccc2c(c1)OCCO2 (stereo unspecified) 56.2 µM [inhibitor, partial curve, poor fit]
COc1cccc(OC)c1OCc1cc(C2C3CCCC=C3C(C#N)=C(N)C2(C#N)C#N)c(C)cc1C (stereo unspecified) 89.1 µM [inhibitor, single point]
Cc1ccc(C)c(NC(=O)CSc2ccc(-c3ccco3)nn2)c1 25.1 µM [inhibitor, single point]
COc1ccc(-c2cc(C(F)(F)F)nc(NC3CCCC3)n2)cc1OC 14.1 µM [inhibitor, full curve, poor fit]
COC(=O)c1ccc(C(=O)OC)c(NC(=O)Cc2cccs2)c1 70.8 µM [inhibitor, single point]

Potency, active:
O=C(Nc1cc(S(=O)(=O)N2CCCCC2)ccc1Cl)c1ccccc1NS(=O)(=O)c1ccc(F)cc1 50.1 µM
Oc1cc2ccccc2cc1-c1n[nH]c(=S)o1 79.4 µM

Activity change, negative = inhibition, inconclusive:
Cc1ccc(C(=O)N2N=C(c3ccc(NS(C)(=O)=O)cc3)CC2c2cccs2)cc1 (stereo unspecified) -13.5% [inhibitor]

Activity change, negative = inhibition, inactive:
O=C(NC1CCCC1)c1ccc(Cl)c(S(=O)(=O)N2CCOCC2)c1 5.14%
CCCCCCc1nc2nc(Cl)c(Cl)nc2[nH]1 -19.3%
Cc1cccnc1NC(=S)Nc1ccc(Br)cc1Cl 4.35%
CC(=O)Nc1cc(-c2ccsc2)cn2c(-c3ccc(F)cc3)cnc12 -10.2%
O=C(Nc1nc2nccc(-c3ccccc3)n2n1)c1ccccc1 3.59%
Cc1ccc(S(=O)(=O)Nc2cc(C(=O)O)ccc2N2CCCCC2)cc1 -11.9%
COc1cccc(-c2nnc(-c3ccc(C(F)(F)F)cc3)o2)c1 7.08%
O=C(Nc1ccnn1C1CCN(CCCc2ccccc2)CC1)c1cccc(F)c1 0.885%
C/C(=N/OCc1ccc(Br)cc1)c1ccccn1 5.91%
Cc1cc(C(=O)OCC(=O)NCc2ccccc2)c(C)o1 0.675%
O=C1c2ccccc2C(c2nnnn2Cc2ccccc2)N1Cc1ccc2c(c1)OCO2 (stereo unspecified) 2.98%
O=C(Cc1ccccc1)Nc1ccc(NC(=O)c2ccco2)nc1 -1.6%
O=C(N=C1SC2CS(=O)(=O)CC2N1CCc1ccc(F)cc1)C1CCCCC1 (stereo unspecified) -1.09%
COc1cccc(CN2C(=O)C(C)Oc3ccccc32)c1 (stereo unspecified) -8.24%
CCOC(=O)c1sc(NC(=O)c2ccc(Cl)s2)cc1C -16.8%
CC1(C)c2ccccc2N2CC(=O)N(CC(N)=O)C21C (stereo unspecified) 4.61%
